Data as given in the RNAGym collection of RNA variant scans (doi:10.7554/elife.90254).
Read counts are not given, so values of variants with three or more changes are uncertain.

B1: LINE1-full (parent)
chain: UACGUAGGUGGUUUUCCCCUGAUAGUGCUAAGGGGGCCUGGAAGUUUGGACUGGGCAGAGCUCAACACAGCGUGGCAAAGUGGCUGUGGCUAGACUGCCUCUCUGGAUUCCUCGUCACUCAGCAGGGCAUCUCUGAGAGAAAUGCC

Variants of: B1
Assay: self-cleavage, relative activity (ratio to wild type); higher = more cleavage; in vitro, sequencing; the parent is a self-cleaving ribozyme

Variant | self-cleavage
U1C A77G U96A A136G | 0.13
U1C A2U A117U A138G | 1.46
U1C U20G U85C | 0
U1C U12C U102A U108A A138G | 1.84
U1G C3U U13C | 0.63
U1C U87A A129U | 0.14
A2G A42G G114C | 1.22
A2G C3U G7C U73C | 0.8
A2G U45C U100A | 0.41
A2G U5C A30U A141G | 0.55
A2G U46C U73C U85C | 1.31
A2G U14C A59G | 0.53
A2G U52A A65G U102A G135U | 0.27
A2G U13A U14A | 0.92
U1C A78G A79G | 0.9
U1C G8C A22G U104G A117U | 2.06
A2G U46A A64G A107G A141G | 0.19
A2G U23C U109A | 1.11
A2G U12A A30U A31G | 0.25
A2G C3U A43G G44A | 0.74
U1C U46C U73C U130C | 0
U1C U12C U100C | 1.44
U1C G53U A141G | 1.21
A2G A50G A64U A67G | 0.29

Variant | self-cleavage
A2U A50G A77U | 0.2
U1C G93A A141G | 0.04
U1C U13C U81C A142G | 0.24
U1C U52A U104A A140G | 0.3
A2U G36A A78U G114U | 1.14
U1C U39A U73C | 1.64
U1C A78G A142G | 0.63
U1A U73C A92U | 0.79
U1C U12G A42G | 0
U1C A79G A107G U112C | 0.92
A2G U62C U85C | 1.09
U1C A50G A77G U134C | 0.97
U1A U132C U134A | 0.41
U1A U39C U91A | 1.13
U1C U9C A43G G70C U96A | 0
U1C A57G U85A | 0.05
A2G A59G A79U A107U U132C G137A | 0.32
A2G A31G A43G U96A | 0.15
A2G A79G U115A | 0.54
A2G U9C U26C C95G A141G | 0.38
U1C U5A A67G G88A | 0.09
U1C U45A U102C | 1.23
U1G A65G U91C | 0
A2G U96C C128U | 0.14

Variant | self-cleavage
A2G A65G U102C A141G | 0
A2U A57U U73C | 0.17
U1C C56A U73C | 0.07
U1C U115C A121C G125U | 0.34
U1C A65G A124U C133A | 0.05
U1C A2G U100A | 0.3
U1C A6G A92G | 0.16
A2G U26A U46A A79G | 0.36
U1C U13G U73A U87A U109C A141G | 0.03
A2G U13C G33A A65C | 0.28
U1C U9A G27A | 0.79
U1A U81A C113U | 1.39
A2G A65G C76U C90U | 0
A2G U26C A136U | 1.19
U1C A50G U62C U87C | 0
U1C U87C U134A U143A | 0
U1C G32A A67G | 0.38
A2G A6U A67U G93A G126A | 0.08
A2G A57G G93U A124G | 0.12
A2G U45C A59G G82A U104A U134A A140G | 0
A2G A42G A94U U134C | 0.48
A2G U14C U115C | 0.27
A2G C19A U73G U108C U109C G126U | 1.84
U1C U13C A77U | 0.97

Variant | self-cleavage
A2G U15C A24U U47C U81A | 0.77
A2C U14C A136G | 1.41
U1C U39A A67G U85C U132C | 0
A2G A43G A67U U132C | 0.3
A2G U46C U130C | 1.23
A2G A65G G70A U104A | 0.17
U1C C3U A107G | 1.31
U1C A65G U85C U108C | 0
A2G U12A U52A U115C | 0.47
U1C U14C A59G U62C | 0.26
U1C U9A A22U | 0.74
U1C U39C A50G G54A | 0.12
U1G G97A A117G | 0.22
A2G A57G A124G | 0.97
A2G U39A A67G U130A | 0.75
U1G G21A U87G A129G A141G | 0.3
U1A U87C G93U A117G U119A | 0.3
A2G U9C U52C A79G G126A | 0.54
A2G A129U A142G U143C | 0.97
U1C U9C U20G | 1.34
A2G G126U G139A | 1.23
A2G U62C A129U | 0
U1C U5C C113A A124G U143C | 0.72
A2G U9A A65G | 0.23

Variant | self-cleavage
A2G A43G C145U | 0
A2G A43G U46A U62C U108C | 0.61
A2G U26C U39C C101A A129U | 0.95
U1C U9G A69G U115C | 0
A2G U9C U14C C38U U87C | 0.61
U1C U23A A24G G105A | 1.15
A2G A69G U104C | 0.77
U1C U15C A136G | 0.51
U1C A121G A138U | 0.63
A2U G35A A42U A78G | 0.25
U1C A42G A59G U104C | 0
A2G G53A U96C A121U | 0.21
U1C G35A U39C A50G A67U U109C U115G | 0
A2G U62A A64G A136U | 0.08
U1C A22U A78G G105U | 1.18
A2G U112A A129G | 0.51
A2G U85C A142G | 0.84
U1C U9C A43G U100C A124U A136G | 2.9
U1C U46A A107C G127A | 1.36
U1C A6G U13C U26C G135A | 1.23
A2C A30G U73C A142U | 2.16
U1A U46C U96C | 0.42
A2G U5C U39C A43G | 0
A2G U73C A77U C128U | 0.47

Variant | self-cleavage
U1C U39C U47C | 1.43
A2G A43G G80A U109A A136G | 1.52
A2G C37G A117G A138G | 1.39
A2G U9G U62C U100C U112A U134C | 0
A2G U85C U115A | 0
U1A U45C A121U U143A | 1.53
A2G G75A U81A | 0.97
A2G C90U G135A | 0.22
A2G U85G A136U | 0.14
U1C U20G U47A A94G U115C | 0.24
U1G U87C G97A U115C | 0.21
A2G U100A U102C | 0.19
A2G A22U A77C A79G A142G | 0.84
U1C U100C U104G A140G | 0.92
A2G A43G U143C C145U | 1.01
U1A U52A G55C U91C | 0.23
U1C U12C U15C A129G | 1.68
A2G U73A U130C | 0.44
A2G U46C A138G | 1.24
A2G U20C U26G | 0.36
U1C A24G G40U G55C G72A A78U | 0
A2G G49A A79C | 1.04
A2U A78U U104C | 1.55
A2G A107G C113U | 0.95

Variant | self-cleavage
U1A U100C C145U | 1.69
U1C G33A A57U | 0.14
A2G U14C A78G U132C | 0.42
U1C U73C G83C | 1.38
U1A U119C U143C | 1.81
U1C U52A A64G A69U | 0.1
A2G U15C U29C U45A A67G A136U | 0.37
A2G U115C U134A A142G | 0.77
U1C C71A A94G A121U A124G | 0
A2G U52A A77G | 0.88
A2G G32A A79C | 1.13
A2G U26C U45G | 0
A2G U12G G34U U109A | 0.57
U1C U81C A94G G105U | 0.15
U1C U23C G72A U132A | 0.78
U1C U73A U85C | 0
A2G C16A A65U C113G A129C | 0.16
A2G A64U A78G | 0.47
U1C G34A U46A U52C A77G | 0.33
A2G U87C U115C A136G | 0.77
A2G G72A A141G | 0.69
U1C U104C U130C | 0.5
A2G U5G A30U | 0.92
